{"source": "PubChem BioAssay AID1460", "about": "(National Center for Advancing Translational Sciences (NCATS), 2008)", "note": "The whole screen tested about 270,000 compounds, of which about 5,800 (2.1%) were called active. Inconclusive results, whose numbers are uncertain, are shown with a selection of clear calls. The call rests on the fitted dose curve; in most records, active means well fitted inhibition curve with a large enough effect; inconclusive means small, poorly fitted or top-dose-only effect; inactive means flat fitted curve, though single readings scatter. Where the call is inconclusive, the potency comes from a doubtful curve fit."}
{"target": "Microtubule-associated protein tau (Homo sapiens) (UniProt P10636)", "sequence (P10636 whole entry, looked up)": "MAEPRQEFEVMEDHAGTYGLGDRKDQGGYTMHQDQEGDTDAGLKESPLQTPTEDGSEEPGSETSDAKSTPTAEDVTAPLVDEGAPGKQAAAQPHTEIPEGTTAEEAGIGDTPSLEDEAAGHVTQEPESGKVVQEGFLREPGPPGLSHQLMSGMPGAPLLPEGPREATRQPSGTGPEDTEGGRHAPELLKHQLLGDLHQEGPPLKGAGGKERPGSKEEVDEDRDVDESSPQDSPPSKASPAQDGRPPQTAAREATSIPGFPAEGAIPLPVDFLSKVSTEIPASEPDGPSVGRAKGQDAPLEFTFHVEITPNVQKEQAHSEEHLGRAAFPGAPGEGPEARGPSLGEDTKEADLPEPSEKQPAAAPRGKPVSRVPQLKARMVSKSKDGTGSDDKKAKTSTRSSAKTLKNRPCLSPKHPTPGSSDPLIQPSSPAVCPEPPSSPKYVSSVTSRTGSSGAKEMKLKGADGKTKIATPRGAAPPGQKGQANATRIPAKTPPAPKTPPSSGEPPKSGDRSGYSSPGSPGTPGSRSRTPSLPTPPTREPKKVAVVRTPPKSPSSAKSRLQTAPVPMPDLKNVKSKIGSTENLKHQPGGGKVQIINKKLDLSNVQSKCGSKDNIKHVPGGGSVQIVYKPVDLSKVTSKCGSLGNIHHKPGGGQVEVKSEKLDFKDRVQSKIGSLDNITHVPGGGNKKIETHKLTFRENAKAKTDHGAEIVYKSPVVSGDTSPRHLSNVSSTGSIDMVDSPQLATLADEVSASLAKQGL", "assay": "qHTS for Inhibitors of Tau Fibril Formation, Thioflavin T Binding; further: nearly all actives have a fitted effect of over 55% in size; further: potency means the concentration at half of the fitted maximal effect; tags describe the fitted curve by direction and shape; on activity, negative = inhibition: on the % scale 0 is the no-effect control and ±100 the full control effect", "settings": "recombinant tau K18 P301L, heparin-induced fibrillization, ThT fluorescence; series mostly up to 57.4 µM", "outline": "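Using a mix of unlabeled (15 uM) and Alexa 594-labeled (0.24 uM) tau K18 P301L, heparin-triggered fibrillization over 6 hr at 37 C was scored by ThT fluorescence.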"}
{"compound": "CCC(C(=O)NC1CCCCC1)N(Cc1cccs1)C(=O)c1snc(C(N)=O)c1N", "note": "(stereo unspecified)", "Potency": "inactive"}
{"compound": "Cc1sc2ncnc(OCC(=O)Nc3ccc4c(c3)OCCO4)c2c1C", "Potency": "inactive"}
{"compound": "CNC(=O)CSc1nc(-c2ccccc2)c(-c2ccccc2)[nH]1", "Potency": "inactive"}
{"compound": "S=C(CN1CCCC1=S)NCCc1ccccc1", "Potency": "inactive"}
{"compound": "Cc1cc(NS(=O)(=O)N(C)C)ccc1C(C)C", "Potency": "inactive"}
{"compound": "CCSc1ncc(/C=N/Nc2ccc(F)cc2)n1C", "Potency": "active: 8.91 µM"}
{"compound": "COc1ccc(/C(C)=N\\Nc2nc(-c3ccccc3)cc(=O)[nH]2)cc1", "Potency": "inconclusive: 1.12 µM [inhibitor, full curve, poor fit]"}
{"compound": "C=CCNC(=S)NNC(=O)COc1c(Cl)cc(Cl)cc1Cl", "Potency": "inconclusive: 14.1 µM [inhibitor, partial curve]"}
{"compound": "CC(=O)N1CCc2cc(N=NC3=C(O)CCCC3=O)ccc21", "Potency": "inconclusive: 11.2 µM [inhibitor, partial curve]"}
{"compound": "Cc1cc(SCn2nnc3ccccc3c2=O)nc2ccccc12", "Potency": "inactive"}
{"compound": "Cc1ccc(Oc2ccc(-c3nc(N)nc(N)n3)cc2)cc1C", "Potency": "inconclusive: 35.5 µM [inhibitor, partial curve]"}
{"compound": "COC(=O)c1cccc(C23CC4(C2)[C@H](CN(CC2CCCCC2)[C@@H]4c2ccccc2)C3c2ccc(C(F)(F)F)cc2)c1", "note": "(stereo partly specified)", "Potency": "inconclusive: 39.8 µM [inhibitor, single point]"}
{"compound": "COc1cc(C=O)c([N+](=O)[O-])cc1OC", "Potency": "active: 3.16 µM"}
{"compound": "CCC(c1nnc(SCC(=O)Nc2nnc(-c3ccccc3)o2)o1)N(C)C", "note": "(stereo unspecified)", "Potency": "inconclusive: 20 µM [inhibitor, single point]"}
{"compound": "COc1ccccc1CNC(=O)C1CCCN(c2nnc(-n3c(C)ccc3C)s2)C1", "note": "(stereo unspecified)", "Potency": "inconclusive: 31.6 µM [inhibitor, single point]"}
{"compound": "Cc1ccc2nc(N/N=C/c3ccccc3C#N)nc(-c3ccccc3)c2c1", "Potency": "inconclusive: 20 µM [inhibitor, partial curve]"}
{"compound": "COc1ccc(NC(=O)c2cc(-c3ccco3)nc3ccccc23)cc1S(=O)(=O)N1CCOCC1", "Potency": "inconclusive: 3.98 µM [inhibitor, partial curve]"}
{"compound": "COc1cc(/C=N/NC(N)=S)ccc1OCC(=O)Nc1ccc(C)cc1", "Potency": "inactive"}
{"compound": "COC(=O)c1nc2n(n1)C(c1cc(OC)ccc1OC)C(C(=O)OC1CCCCC1)=C(C)N2", "note": "(stereo unspecified)", "Potency": "inconclusive: 35.5 µM [inhibitor, partial curve]"}
{"compound": "COc1ccccc1C(=O)N1CCN(C(=O)COc2cccc(C)c2)CC1", "Potency": "inactive"}
{"compound": "Cc1ccc(C(=O)c2cc(C)sc2N)cc1", "Potency": "inconclusive: 25.1 µM [inhibitor, single point]"}
{"compound": "Nc1[nH]n(-c2ccccc2)c(=O)c1N=Nc1ccccc1", "Potency": "active: 2.51 µM"}
{"compound": "O=C(Cn1nnc(-c2ccc(F)cc2)n1)OCC(=O)c1ccccc1", "Potency": "inconclusive: 12.6 µM [inhibitor, partial curve, poor fit]"}
{"compound": "CN1C(=O)/C(=C/c2coc3ccc(O)cc3c2=O)SC1=S", "Potency": "inconclusive: 1.26 µM [inhibitor, full curve]"}
{"compound": "COc1ccc(-c2nc3c(c4c2C[C@H](c2ccccc2)OC4)CN(C(=O)Nc2cccc(C#N)c2)CC3)c(C)c1", "activity, negative = inhibition": "inactive: -0.744% [at 11.5 µM]"}
{"compound": "Cc1cccnc1Nc1nc(-c2ccc(O)c(O)c2)cs1", "Potency": "active: 7.94 µM"}
{"compound": "CCOC(=O)COc1ccc(S(=O)(=O)NCc2ccncc2)cc1", "Potency": "inactive"}
{"compound": "c1ccc(Cn2nnc3c(N4CCCC4)ncnc32)cc1", "Potency": "inactive"}
{"compound": "CCn1c(SCCOc2ccccc2F)nc2ccccc21", "Potency": "inconclusive: 10 µM [inhibitor, partial curve, poor fit]"}
{"compound": "Cc1cc(/C=N/n2cnnc2)c(C)n1-c1ccc(OCc2ccc(Cl)cc2)cc1", "Potency": "inconclusive: 7.08 µM [inhibitor, partial curve]"}
{"compound": "Nc1c(C(=O)c2ccc(Br)s2)oc2ccccc12", "Potency": "active: 10 µM"}
{"compound": "Cc1ccc(C(C)C)c(OCC(=O)N2CCC(c3nc4ccccc4o3)CC2)c1", "Potency": "inconclusive: 15.8 µM [inhibitor, partial curve]"}
{"compound": "O=C(CSc1nc2ncc(Br)cc2[nH]1)Nc1ccc2c(c1)OCO2", "Potency": "inconclusive: 20 µM [inhibitor, single point]"}
{"compound": "Cc1nc2nc(SCC(=O)NCCc3ccccc3)nn2c(C)c1Cc1c(F)cccc1Cl", "Potency": "inconclusive: 14.1 µM [inhibitor, single point]"}
{"compound": "COCC1CCN(C(=O)c2cc(COc3ccc4ncccc4c3)on2)CC1", "Potency": "inconclusive: 15.8 µM [inhibitor, partial curve]"}
{"compound": "COc1ccc(C(=O)N(Cc2ccc(C(C)C)cc2)C2CCS(=O)(=O)C2)cc1", "note": "(stereo unspecified)", "Potency": "inactive"}
{"compound": "CCC(=O)Nc1nc2c(s1)COc1ccccc1-2", "Potency": "inconclusive: 6.31 µM [inhibitor, full curve]"}
{"compound": "CCOC(=O)CSc1nc(C)nc2c1sc1nc(C)c(C(C)=O)c(-c3ccc(OC)cc3)c12", "Potency": "inconclusive: 10 µM [inhibitor, partial curve, poor fit]"}
{"compound": "Cn1cnc([N+](=O)[O-])c1Sc1ncn[nH]1", "Potency": "inconclusive: 12.6 µM [inhibitor, partial curve]"}
{"compound": "Cc1cc(C(=O)N/N=C/c2cc(Br)cc([N+](=O)[O-])c2O)c2ccccc2n1", "Potency": "active: 7.94 µM"}
{"compound": "CC(C)(C)c1ccc2c(c1)OC(C(=O)N/N=C/c1ccc([N+](=O)[O-])o1)CO2", "note": "(stereo unspecified)", "Potency": "inconclusive: 6.31 µM [inhibitor, partial curve]"}
{"compound": "CCCSc1ncc(Cl)c(C(=O)Nc2sc3c(c2C(=O)NCCOC)CCCC3)n1", "Potency": "inconclusive: 15.8 µM [inhibitor, partial curve, poor fit]"}
{"compound": "CC/C=C\\C/C=C\\C/C=C\\C/C=C\\C/C=C\\C/C=C\\CCC(=O)NCCO", "Potency": "inactive"}
{"compound": "COc1ccc(N2CCN(c3nc4ccccn4c(=O)c3C=O)CC2)cc1", "Potency": "inconclusive: 15.8 µM [inhibitor, partial curve]"}
{"compound": "Cc1cc([N+](=O)[O-])ccc1NC1CCCC1", "Potency": "inconclusive: 25.1 µM [inhibitor, single point]"}
{"compound": "COc1ccc(-c2cn3nc(N4CCC(C(=O)Nc5cccc(C)c5C)CC4)sc3n2)cc1", "Potency": "inconclusive: 1.26 µM [inhibitor, full curve]"}
{"compound": "Cc1cc2cc(CN(CCN(C)C)C(=S)NCc3ccco3)c(=O)[nH]c2cc1C", "Potency": "inconclusive: 17.8 µM [inhibitor, single point]"}
{"compound": "N=c1oc2cc(O)ccc2cc1C(=O)Nc1ccccn1", "Potency": "inconclusive: 14.1 µM [activator, partial curve]"}
{"compound": "CCN(CC)C(=O)CSc1nc(-c2cccs2)cc(-c2cccs2)c1C#N", "Potency": "inconclusive: 8.91 µM [inhibitor, partial curve]"}
{"compound": "COc1cccc(NC(=O)C(=O)N/N=C/c2cc(C)n(-c3ccc(Cl)c(Cl)c3)c2C)c1", "Potency": "inconclusive: 3.55 µM [inhibitor, full curve]"}
{"compound": "COc1ccc2[nH]cc(CCNc3ncncc3-c3ccc(N(C)C)cc3)c2c1", "Potency": "inconclusive: 22.4 µM [inhibitor, partial curve, poor fit]"}
{"compound": "COC(=O)c1cccc(Nc2ncnc3sccc23)c1", "Potency": "inconclusive: 14.1 µM [inhibitor, single point]"}
{"compound": "Cc1c(C(=O)Oc2cccc3ccccc23)cnn1-c1ccccc1", "Potency": "inconclusive: 15.8 µM [inhibitor, partial curve]"}
{"compound": "NC(=O)CC(NC(=O)Cc1ccc(Br)cc1)c1ccc(NCCc2ccc(Cl)cc2)c([N+](=O)[O-])c1", "note": "(stereo unspecified)", "Potency": "inconclusive: 10 µM [inhibitor, partial curve]"}
{"compound": "Cc1nn(-c2ccccc2)c(C)c1/C=N/n1c(-c2ccc(Cl)cc2)n[nH]c1=S", "Potency": "inactive"}
{"compound": "COCCn1c(=O)[nH]c2cc(C(=O)NCCN3CCN(c4cccc(Cl)c4)CC3)ccc2c1=O", "Potency": "inconclusive: 11.2 µM [inhibitor, partial curve]"}
{"compound": "COc1ccc(-c2oc3ccccc3c(=O)c2O)cc1OC", "Potency": "inconclusive: 3.55 µM [inhibitor, full curve, poor fit]"}
{"compound": "Cc1ccc2nc3c(nc2c1)-c1ccccc1C3=O", "Potency": "inconclusive: 7.94 µM [inhibitor, full curve]"}
{"compound": "Cc1cccc(N(C)S(=O)(=O)c2cc3c(cc2Cl)NC(=O)CO3)c1", "Potency": "inconclusive: 31.6 µM [inhibitor, single point]"}
{"compound": "O=C(/C=C\\c1ccc(-c2cccc([N+](=O)[O-])c2)o1)N1CCOCC1", "Potency": "inconclusive: 20 µM [inhibitor, partial curve]"}
{"compound": "Cc1ccc2occ(CN3CCN(c4ccccc4)CC3)c(=O)c2c1", "Potency": "inactive"}
{"compound": "CCCC(=O)OCCNc1cc(Sc2nccn2C)c2nonc2c1[N+](=O)[O-]", "Potency": "active: 7.08 µM"}
{"compound": "COc1cc(C(C#N)N2CCCCC2)ccc1O", "note": "(stereo unspecified)", "Potency": "inactive"}
{"compound": "O=C(COC(=O)CCOc1ccccc1)NCc1ccco1", "Potency": "inconclusive: 35.5 µM [inhibitor, single point]"}
{"compound": "CSCC[C@H](NC(=O)Nc1cccc(Br)c1)C(=O)O", "Potency": "inactive"}
{"compound": "CCOc1ccc(CNC(=O)c2ccc(-c3nc(CS(=O)(=O)c4ccccc4)c(C)o3)cc2)cc1", "Potency": "inconclusive: 3.98 µM [activator, full curve, poor fit]"}
{"compound": "COc1cccc(-c2nnc3sc(-c4ccccn4)nn23)c1", "Potency": "inconclusive: 2.24 µM [inhibitor, full curve]"}
{"compound": "c1ccc2c(-c3ccncc3)c[nH]c2c1", "Potency": "inactive"}
{"compound": "CCOC(=O)C1CCN(CCC(=O)Nc2ccc(Br)c(C)c2)CC1", "Potency": "inactive"}
{"compound": "O=C(CSc1nc(=O)[nH]c2c1CCCC2)Nc1ccccc1C(F)(F)F", "Potency": "inactive"}
{"compound": "C/C(=N\\NS(=O)(=O)c1ccc(C)c([N+](=O)[O-])c1)c1ccc2c(c1)OCO2", "Potency": "inactive"}
